Reference: the supplement of paper PMC12217912
The list shows a part of the results. The full chains were built here from the parent and the listed change. Inactive controls read about 0.05.

B1: TEV protease; numbered along this chain (parent)
chain: MGESLFKGPRDYNPISSSICHLTNESDGHTTSLYGIGFGPFIITNKHLFRRNNGTLVVQSLHGVFKVKDTTTLQQHLVDGRDMIIIRMPKDFPPFPQKLKFREPQREERICLVTTNFQTKSMSSMVSDTSCTFPSGDGIFWKHWIQTKDGQCGSPLVSTRDGFIVGIHSASNFTNTNNYFTSVPKNFMELLTNQEAQQWVSGWRLNADSVLWGGHKVFMVKPEEPFQPVKEATQL

Variants of: B1
Experiment: raw area under fraction-flipped curve 0-4 h after induction (AUC4h, not background-subtracted), DNA-recorder readout of cleavage of the substrate (dimensionless); higher = more cleavage of the substrate by the protease variant
Conditions: temperature: 34 °C; time window: 0-4 h after rhamnose induction
Protocol: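 In vivo DNA recorder in E. coli TOP10(DE3) ΔrhaA at 34 °C. Each TEVp single-site mutant (parent TEVp 0) is paired with a single-site variant of the 7-mer TEVs (canonical ENLYFQ|S). The substrate sits between flexible linkers in a Bxb1-sfGFP-TEVs-SsrA fusion, so cleavage stabilises Bxb1 and speeds flipping of a recombination array, read by NGS. The value is the raw area under the fraction-flipped curve over 0-4 h after rhamnose induction (AUC4h), with ≥20 reads per time point. It is not background-subtracted; inactive controls average about 0.047.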
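Note: Bxb1 expression induced with 0.2% (w/v) L-rhamnose at OD600 near 0.5, cultures sampled hourly, flipped fraction per protease–substrate barcode pair counted by paired-end Illumina sequencing.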

Row | Variant | area with substrate EALYFQS | area with substrate ECLYFQS | area with substrate EELYFQS | area with substrate EILYFQS | area with substrate EPLYFQS | area with substrate EQLYFQS | area with substrate ESLYFQS | area with substrate EVLYFQS | area with substrate ELLYFQS | area with substrate ETLYFQS
1 | S169E | 0.0554 | 0.0554 | 0.0614 | 0.0439 | 0.059 | 0.0606 | 0.0595 | 0.05 | – | –
2 | L235K | 0.163 | 0.136 | 0.144 | 0.108 | – | 0.134 | 0.119 | 0.106 | 0.148 | 0.124
3 | G202P | 0.0886 | – | 0.0598 | 0.0417 | – | – | 0.0735 | 0.0738 | – | –
4 | G202D | 0.0752 | – | – | 0.0663 | – | – | 0.0594 | – | 0.0878 | –
5 | Y179F | 0.107 | 0.0895 | – | 0.0912 | – | – | – | 0.0702 | – | –
6 | A170H | 0.073 | – | – | – | – | – | 0.0523 | 0.0484 | 0.0561 | 0.0715
7 | P228M | 0.101 | 0.105 | – | 0.102 | – | – | 0.109 | 0.0789 | 0.0845 | –
8 | P228L | 0.146 | – | 0.0651 | 0.0857 | – | 0.09 | 0.112 | – | – | –
9 | P228K | 0.127 | – | – | 0.111 | 0.121 | 0.111 | 0.0912 | 0.105 | – | –
10 | V157Q | 0.0921 | 0.0808 | – | 0.0877 | 0.0887 | 0.102 | – | 0.074 | – | –
11 | V157P | 0.0469 | – | – | 0.0504 | 0.0089 | 0.0456 | 0.0582 | 0.0645 | 0.0538 | –
12 | G213V | 0.0669 | – | – | – | – | – | – | – | – | –
13 | F218M | 0.174 | – | – | 0.0871 | – | 0.0793 | 0.101 | – | – | –
14 | F218W | 0.111 | – | – | 0.0894 | – | – | 0.0938 | – | – | 0.0979
15 | V217F | 0.0795 | 0.0883 | – | 0.0429 | – | 0.0481 | – | – | 0.104 | 0.0658
16 | V217T | 0.122 | – | 0.0929 | 0.0807 | 0.0409 | – | 0.0706 | 0.0626 | 0.0964 | –
17 | E223V | 0.1 | – | – | 0.0998 | 0.112 | – | 0.0949 | 0.1 | – | –
18 | E223W | 0.097 | – | – | 0.114 | – | – | 0.0884 | 0.0804 | – | –

Row | Variant | area with substrate EALYFQS | area with substrate ECLYFQS | area with substrate EELYFQS | area with substrate EILYFQS | area with substrate EPLYFQS | area with substrate EQLYFQS | area with substrate ESLYFQS | area with substrate EVLYFQS | area with substrate ELLYFQS | area with substrate ETLYFQS
19 | P222K | 0.0724 | 0.0895 | 0.125 | 0.074 | – | 0.101 | 0.103 | – | – | –
20 | G150I | 0.0601 | – | 0.0554 | 0.0521 | 0.0497 | 0.062 | 0.063 | 0.0606 | 0.0597 | 0.0506
21 | L205K | 0.0585 | 0.0621 | – | 0.0587 | 0.0562 | 0.0756 | 0.0633 | 0.0474 | – | –
22 | L205I | 0.121 | – | – | – | 0.109 | – | – | – | – | –
23 | L211A | 0.102 | – | 0.123 | – | 0.165 | 0.113 | – | – | – | –
24 | L211R | 0.0874 | – | – | – | – | 0.113 | 0.0974 | – | 0.0959 | –
25 | L211W | 0.166 | 0.0963 | 0.0586 | 0.152 | 0.0723 | 0.152 | 0.102 | 0.0762 | – | –
26 | G2R | – | 0.122 | – | 0.0961 | – | 0.177 | – | 0.119 | 0.156 | –
27 | N172G | 0.0631 | – | – | 0.0536 | 0.0513 | – | 0.0693 | 0.0562 | 0.0663 | –
28 | N172I | 0.0459 | – | – | 0.0648 | – | 0.0565 | 0.0715 | – | – | –
29 | N186D | 0.127 | – | 0.154 | – | 0.0962 | 0.13 | 0.102 | – | 0.102 | 0.128
30 | K230Y | 0.105 | – | – | – | – | 0.0976 | 0.0879 | – | – | –
31 | Q198M | 0.103 | – | – | – | – | 0.106 | 0.103 | 0.0891 | 0.0799 | –
32 | D208P | 0.0781 | – | 0.0701 | – | – | 0.0755 | 0.0664 | 0.0691 | 0.0846 | 0.0872
33 | Q151D | 0.148 | – | – | 0.124 | 0.118 | 0.127 | 0.0893 | 0.0995 | 0.0833 | 0.0808
34 | S154T | 0.0736 | – | 0.0871 | 0.116 | 0.0737 | – | 0.114 | 0.109 | 0.0904 | –
35 | S154K | 0.087 | – | 0.121 | 0.0738 | 0.0894 | 0.0966 | 0.09 | 0.0773 | – | 0.081
36 | S154Y | 0.0807 | – | – | – | 0.12 | – | 0.0849 | – | – | 0.0792

Same assay, conditions: temperature: 34 °C; time window: 0-4 h after rhamnose induction

Row | Variant | area with substrate EWLYFQS | area with substrate EYLYFQS | area with substrate EFLYFQS | area with substrate EHLYFQS | area with substrate EKLYFQS | area with substrate EMLYFQS | area with substrate ERLYFQS | area with substrate EGLYFQS | area with substrate EDLYFQS
37 | L235K | 0.0886 | 0.0766 | – | – | – | – | – | – | –
38 | G202P | 0.0473 | – | 0.0575 | 0.064 | 0.064 | 0.0687 | 0.0572 | – | –
39 | G202D | – | 0.0703 | – | 0.0796 | 0.0782 | – | – | 0.0573 | –
40 | Y179F | – | – | – | – | – | – | – | 0.124 | –
41 | A170H | – | – | – | – | – | – | – | – | 0.0608
42 | P228M | 0.0752 | – | – | 0.0886 | 0.111 | 0.126 | 0.0882 | 0.0689 | –
43 | P228L | – | 0.0832 | – | 0.151 | 0.104 | – | 0.105 | – | 0.0328
44 | P228K | – | 0.113 | – | – | – | – | 0.11 | 0.143 | –
45 | V157Q | – | – | – | 0.0718 | 0.088 | 0.0865 | – | 0.0713 | –
46 | V157P | 0.0474 | – | – | – | 0.0325 | – | 0.0389 | 0.0594 | –
47 | G213V | – | – | – | – | 0.0662 | 0.0603 | 0.0489 | – | –
48 | F218M | – | – | – | – | – | – | – | – | 0.146
49 | F218W | 0.104 | – | – | – | 0.0736 | – | – | – | –
50 | V217F | – | – | – | – | 0.0976 | – | – | 0.0759 | –
51 | V217T | 0.0657 | – | – | – | 0.0691 | 0.0751 | – | – | 0.0824
52 | E223V | 0.0811 | – | 0.122 | 0.0676 | – | 0.0863 | – | – | 0.138
53 | E223W | 0.0928 | – | – | 0.0783 | 0.117 | 0.135 | 0.0877 | 0.0742 | –
54 | P222K | – | – | – | – | – | 0.0966 | 0.0915 | – | –

Row | Variant | area with substrate EWLYFQS | area with substrate EYLYFQS | area with substrate EFLYFQS | area with substrate EHLYFQS | area with substrate EKLYFQS | area with substrate EMLYFQS | area with substrate ERLYFQS | area with substrate EGLYFQS | area with substrate EDLYFQS
55 | G150I | 0.0529 | 0.0541 | – | 0.0534 | 0.0617 | 0.0633 | 0.0533 | – | 0.0634
56 | L205K | – | – | – | – | 0.0687 | 0.0668 | – | – | –
57 | L205I | – | – | – | – | 0.0929 | 0.088 | 0.0728 | 0.0951 | –
58 | L211A | – | 0.104 | – | – | – | 0.125 | 0.149 | – | –
59 | L211R | – | – | – | – | 0.0969 | 0.112 | – | – | –
60 | L211W | 0.0678 | – | – | – | – | 0.0818 | 0.124 | – | –
61 | G2R | – | 0.147 | – | – | 0.153 | 0.14 | 0.146 | – | 0.158
62 | N172G | 0.0685 | 0.071 | – | – | 0.0706 | 0.055 | – | – | 0.0794
63 | N172I | – | – | – | 0.0616 | 0.0578 | – | 0.0497 | – | –
64 | N186D | 0.0827 | – | 0.131 | – | – | 0.102 | – | 0.104 | –
65 | K230Y | – | 0.103 | – | 0.0981 | – | – | – | 0.0949 | –
66 | Q198M | – | – | 0.0947 | 0.124 | 0.135 | 0.112 | 0.106 | 0.1 | –
67 | D208P | – | – | – | 0.0735 | 0.0652 | – | 0.0794 | – | –
68 | Q151D | 0.112 | – | 0.0896 | 0.101 | 0.102 | – | 0.111 | 0.0846 | –
69 | S154T | 0.0947 | – | – | 0.118 | – | 0.128 | 0.0982 | – | –
70 | S154K | – | – | 0.106 | 0.183 | 0.0945 | 0.129 | 0.0671 | – | 0.126
71 | S154Y | 0.0786 | – | – | 0.101 | – | 0.0826 | – | 0.0856 | –
